Read counts are not given, so values of variants with three or more changes are uncertain.
B1: CPEB3 Ribozyme (parent)
chain: UAACAGGGGGCCACAGCAGAAGCGUUCACGUCGCAGCCCCUGUCAGAUUCUGGUGAAUCUGCGAAUUCUGCUGUAUAUCUC

Variants of: B1
Test: self-cleavage, relative activity (ratio to wild type); higher = more cleavage; in vitro, sequencing
In short: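 Relative activity compares each variant's cleaved/total read fraction with that of the unmutated ribozyme. To get these fractions, barcoded CPEB3 ribozyme libraries from rounds of error-prone PCR were transcribed with T7 RNA polymerase for 5 hours at 37°C and then given 15 min of DNase I treatment before EDTA was added. The RNAs were reverse transcribed with template switching and sequenced on Illumina, and DNA sequencing linked barcodes to variants. A minimum of 5 reads applied, and three batches were averaged.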
For U31C U43A U48C U58A C79U, the self-cleavage was 0.1.
Variant C32U C37G C44A G63A has a self-cleavage of 0.16.
With U31C A64G U66C U74C U80A the self-cleavage was 0.1.
Variant U31C C39G U69C U80A has a self-cleavage of 0.2.
With U31C U43G A45G A57G G73C the self-cleavage was 0.41.
G33A A35G U51A showed a self-cleavage of 0.22.
U31A A45U A56G gave a self-cleavage of 0.15.
Variant U31C C39A G61A U80C has a self-cleavage of 0.13.
Work on U31A G42A A64U yielded a self-cleavage of 0.2.
U31C U49G A57G U69A gave a self-cleavage of 0.32.
U31C A35G C37U G63A U76C gave a self-cleavage of 1.18.
For U31C U51A A56G U76C, the self-cleavage was 0.35.
C32U A35G A56G showed a self-cleavage of 0.14.
With U31A U49C U60A the self-cleavage was 0.43.
With A35C U72C U76A the self-cleavage was 1.25.
Work on U31C C37U U74C yielded a self-cleavage of 0.95.
With G33U U67C U78C the self-cleavage was 0.13.
U31A C50U U58C gave a self-cleavage of 0.15.
Variant U31C C39U U72A has a self-cleavage of 0.7.
For C32U U49C U69C, the self-cleavage was 0.17.
U31G U66C U72C showed a self-cleavage of 0.12.
For G33U U41C A77U, the self-cleavage was 0.09.
For G33C U60G A75C A77G, the self-cleavage was 0.17.
For C34U U43C A45U U49C, the self-cleavage was 0.09.
In the case of U31C A64G A65U U67C, the self-cleavage is reported as 0.14.
A35G A56G U69C showed a self-cleavage of 0.93.
G33A A35U U41A A57G A65G U78A gave a self-cleavage of 0.06.
Variant U31C U48C U54C U72C has a self-cleavage of 0.16.
U31A G61C U67C gave a self-cleavage of 0.09.
Work on U31C U48C U49C A65U U78G U80A yielded a self-cleavage of 0.09.
For A35C U41C U72C, the self-cleavage was 1.04.
With U31C A35G G46A A47G U49C U76A C79A the self-cleavage was 0.08.
Variant G30U U54A G70C has a self-cleavage of 0.06.
In the case of G30U C37U A45G A64U U78A, the self-cleavage is reported as 0.04.
Work on G33U C62G U78C yielded a self-cleavage of 0.13.
In the case of C34U U48C U60A, the self-cleavage is reported as 0.2.
With G33U A45G A57G U60A U66A the self-cleavage was 0.07.
U31A C40U U74C A75U gave a self-cleavage of 0.39.
For U31A A35U C40U U41C A65U U78A, the self-cleavage was 0.13.
Variant U31C A56G U80A has a self-cleavage of 0.66.
Variant G33C U69A U78C has a self-cleavage of 0.23.
With U31A C32A A35G A64G the self-cleavage was 0.4.
Work on G33U U60A U69C yielded a self-cleavage of 0.1.
With G33A A56G U67C U69C the self-cleavage was 0.16.
C34A U41A G46C A57G U58A U60C U69C gave a self-cleavage of 0.08.
For G33A A45C A56U U78C, the self-cleavage was 0.12.
U31C A35U U54C A64U showed a self-cleavage of 0.13.
For C34A U48C U54C A65G G73C, the self-cleavage was 0.05.
U31A U41C U43C U80C gave a self-cleavage of 0.13.
With U31C C32U U41A A64C the self-cleavage was 0.07.
G33A A35U A47G gave a self-cleavage of 0.41.
Variant U31A U54C C62U A64U has a self-cleavage of 0.16.
With U31A A45G G63C U69C U76A the self-cleavage was 0.07.
In the case of U31C U72C U80C, the self-cleavage is reported as 1.09.
In the case of U31C G36U A45G A47G U69C, the self-cleavage is reported as 0.03.
For U31C C39A A45G A64G U67C U72A, the self-cleavage was 0.05.
Variant G33A A35U C62A A65G U72C U74A U80C has a self-cleavage of 0.05.
Variant C32G C62G U69C has a self-cleavage of 0.09.
In the case of U31A C50U A56G, the self-cleavage is reported as 0.37.
U31C A56C U69C gave a self-cleavage of 0.29.
Work on G33C C39A U48C U58A U74C yielded a self-cleavage of 0.11.
In the case of G33A U41A C50U A56G, the self-cleavage is reported as 0.08.
In the case of C34U A47G A56G, the self-cleavage is reported as 0.18.
U31C A45G U48C U54C A57G U67C gave a self-cleavage of 0.13.
Variant A35G A64U A65G U69C has a self-cleavage of 0.56.
U31G U49A C79U gave a self-cleavage of 0.46.
Variant U31G C39A U80A has a self-cleavage of 0.1.
With A35G A56U U60C U67C C71U the self-cleavage was 0.38.
U31C U54G A64G U69G U80C showed a self-cleavage of 0.1.
G30U U43G U48C U60C U74C showed a self-cleavage of 0.04.
Work on A35G A45G U69A yielded a self-cleavage of 1.06.
Variant U31C G33A U76C has a self-cleavage of 0.46.
G33A G46A A56G U69C showed a self-cleavage of 0.2.
Variant U31A A35U A56U has a self-cleavage of 0.13.
In the case of U31C A57C U60A, the self-cleavage is reported as 0.4.
With U31C G52C U69C the self-cleavage was 0.29.
U31A A65G U69A U72A U78C gave a self-cleavage of 0.09.
With U31G U51A A56G A77U the self-cleavage was 0.4.
Work on G33C A47G A56G A64G U67C C81U yielded a self-cleavage of 0.31.
Variant C32U U41C U72C has a self-cleavage of 0.09.
In the case of U31A C62U A65G, the self-cleavage is reported as 0.26.
For C32G U60A U72A, the self-cleavage was 0.12.
With G33U U54C U58C U72C the self-cleavage was 0.08.
In the case of C34U G52A U74A U80C, the self-cleavage is reported as 0.68.
For A35C U51C A56U U66C U78C, the self-cleavage was 0.09.
A35G A56U G61A gave a self-cleavage of 0.29.
With U31C C38U U41A A47U the self-cleavage was 0.17.
U31C U49C U76A gave a self-cleavage of 0.37.
U31G U69C U76A showed a self-cleavage of 0.18.
Variant A35G A47G U51C A64G U74C U78C has a self-cleavage of 1.31.
Work on A35C C40U U51C yielded a self-cleavage of 0.49.
C32G A57G A65G U66C U69C showed a self-cleavage of 0.04.
U31C G36A C38A U41C A64U gave a self-cleavage of 0.08.
With U31A A35U G70A C79U the self-cleavage was 0.08.
With U31C U48C U54C A57G U60A A75G U80C the self-cleavage was 0.19.
With U31A U49A U66C the self-cleavage was 0.16.
Variant U31A U51A A56U has a self-cleavage of 0.15.
Work on C34A A57G U60C U72A yielded a self-cleavage of 0.12.
U31A U66C U72C gave a self-cleavage of 0.34.
In the case of G33U A35U A65G, the self-cleavage is reported as 0.13.
Work on U31C U49G U51C G53U U60C yielded a self-cleavage of 0.21.
U31G A57C U69A gave a self-cleavage of 0.2.
In the case of G33U A47U U49C, the self-cleavage is reported as 0.17.
U31A C38A U58C gave a self-cleavage of 0.36.
Work on U31A U51C U66C yielded a self-cleavage of 0.14.
With U31A U51C U69G the self-cleavage was 0.25.
Variant A35G A45G A64G U76C has a self-cleavage of 1.23.
Work on U31C U41C U58C yielded a self-cleavage of 0.31.
For G33A U43C U49C U66C U67C U80C, the self-cleavage was 0.05.
Variant A35C C71U U76C has a self-cleavage of 0.59.
For U31A A45G A65U G73A, the self-cleavage was 0.13.
U31G U51C U67C U72C gave a self-cleavage of 0.2.
U31C C40U U41G C50A gave a self-cleavage of 0.34.
In the case of C32U G36U A45C U48C U60C U76A, the self-cleavage is reported as 0.06.
In the case of C34U U60C U67C U69A U76A, the self-cleavage is reported as 0.13.
Work on U31G A35U U54C A64U yielded a self-cleavage of 0.44.
Variant C32U A35G U41C U72C has a self-cleavage of 0.11.
In the case of U31C G33A A47G A57G, the self-cleavage is reported as 0.08.
U31C A45G U49C U80C showed a self-cleavage of 0.21.
U31A A57G U78C showed a self-cleavage of 0.41.
C34G A45U U58C U69C U74C gave a self-cleavage of 0.14.
C32A U49A C59U showed a self-cleavage of 0.1.
G30U U41A G70C showed a self-cleavage of 0.14.
Variant C32U U58C C62U U80C has a self-cleavage of 0.13.
Work on U31A A35U U54C C62G U67C yielded a self-cleavage of 0.06.
Work on A35C C40U G63U U67G A75G yielded a self-cleavage of 0.3.
In the case of U31A A65U U74A, the self-cleavage is reported as 0.2.
In the case of U31A U41A U72C A77G, the self-cleavage is reported as 0.06.
In the case of C32A U54G C68U, the self-cleavage is reported as 0.11.
For C34U U41C G42C U72A, the self-cleavage was 0.17.
For U31C U41C U49A A57G, the self-cleavage was 0.19.
U31C C44A A64G gave a self-cleavage of 0.24.
With C32U U51A U58A U80C the self-cleavage was 0.12.
With C34U U41C U67C the self-cleavage was 0.09.
For G33A U54C A64G U67A, the self-cleavage was 0.17.
Variant U31C U41C U43A has a self-cleavage of 0.55.
U31A A45G A47G U76C gave a self-cleavage of 0.14.
For A35G A56G C79A, the self-cleavage was 1.26.
U31C G42U U78C showed a self-cleavage of 0.19.
Variant U31C U43A U60C has a self-cleavage of 0.31.
U31A G36A A45U A56G gave a self-cleavage of 0.25.
For G30U G42A A45U U58A A64U, the self-cleavage was 0.12.
Variant G33C G36C U51A U67A has a self-cleavage of 0.09.
For U31A U43C A64G G73A, the self-cleavage was 0.43.
In the case of U31C C40U A75G, the self-cleavage is reported as 0.26.
Work on C34G C40U A47G yielded a self-cleavage of 0.18.
Work on U31A A64G U69A yielded a self-cleavage of 0.12.
Work on C32U U41C U58C A65U U74C A77U yielded a self-cleavage of 0.07.
U31A A45C U76C U78C gave a self-cleavage of 0.37.
For C34G U49G A64G U66A, the self-cleavage was 0.04.
In the case of U31C G52C C81U, the self-cleavage is reported as 0.96.
In the case of U31C U41C U51C U78C, the self-cleavage is reported as 0.72.
In the case of U31A A47U U58C, the self-cleavage is reported as 0.07.
Work on A35G A75G U78C yielded a self-cleavage of 1.31.
Work on U31A A47U A57C U60A A64U yielded a self-cleavage of 0.1.
In the case of A35C A56U A57U, the self-cleavage is reported as 0.24.
G33U U60C U67C U69G gave a self-cleavage of 0.19.
With U31C G36C G53A A56U A65U U80C the self-cleavage was 0.05.
In the case of U31A U41C U48C U69C, the self-cleavage is reported as 0.11.
Work on C32U U49C U66C U78A yielded a self-cleavage of 0.14.
Variant U31C C68U U69G has a self-cleavage of 0.12.
In the case of U31A U49A U51C, the self-cleavage is reported as 0.45.
U31A U41C G73A U74A gave a self-cleavage of 1.1.
Variant G33C G53U A75G has a self-cleavage of 0.07.
U31C C32G U72A gave a self-cleavage of 0.19.
Variant A35G A57G U60C U69C has a self-cleavage of 0.48.
For U31G A35G U41C, the self-cleavage was 1.04.

Source: the RNAGym collection of RNA variant scans (doi:10.1093/nar/gkz1192)
